Key:
A549 lung cancer cells = test: Tumor growth in vivo, A549 cells implanted into athymic mice; conditions: 6 mg/kg intraperitoneally twice a week for 3 weeks, vs negative control
Experimental: (§1) EA5 can inhibit tumor cell growth in vivo. 5×10^6 MDA-MB-231 breast cancer cells were implanted orthotopically or subcutaneously and 5×10^6 A549 lung cancer cells were implanted subcutaneously into athymic mice. After the tumors had grown to an average volume of 100 mm^3, mice were administered 6 mg/kg of an EA5 or negative control (PBS or 1A7 antibody) intraperitoneally twice a week for 3 weeks. Animals were generally sacrificed at least two weeks after the last treatment or when tumors exceeded 2000 mm^3. Tumor growth was assessed and expressed either as a ratio of the tumor volume divided by initial tumor volume (100 mm^3) or as total tumor volume.

[1] = system: A549 malignant lung cancer cells; test: Colony formation in soft agar, A549 cells; type: cell-based; conditions: 10 μg/ml or 2.5 μg/ml, 7 days at 37° C., vs PBS
Experimental: (§2) Tumor cells were suspended in soft agar. Colony formation in soft agar was assayed as described in Zelinski et al. (2001, Cancer Res. 61: 2301-6). Antibodies or a control solution (PBS) was included in bottom and top agar solutions. Cells were suspended in soft agar for 7 days at 37° C. in the presence of purified antibody or control solution (PBS), administered at the time of suspension. Colony formation was scored microscopically using an Olympus CK-3 inverted phase-contrast microscope outfitted with a 40× objective. Clusters containing at least three cells were scored as a positive. The average number of colonies per high-powered field is shown. Ten separate high-power microscopic fields were averaged in each experiment, and the results shown are representative of at least three separate experiments.
(§3) A549 malignant lung cancer cells were incubated with either 10 μg/ml or 2.5 μg/ml of EA5 or EA2 monoclonal antibodies or a control (PBS). […] Benign MCF-7 breast epithelial tumor cells were converted to malignant cells by the overexpression of EphA2 (MCF-7^EphA2). Both tumor cell types were incubated with either EA5 monoclonal antibodies or a control (PBS). […] Results are reported as colonies per high-powered field (HPF).

[2] = system: malignant prostate cancer cells; test: Immunoreactivity on formalin-fixed, paraffin-embedded archival clinical specimens; type: binding
Source text: (§4) The epitope of the EphA2 antibodies were characterized. EA5 and EA2 selectively bind to malignant cells. The anti-EphA2 monoclonal antibodies EA5 and EA2 bind malignant MDA-MB-231 breast epithelial tumor cells (FIGS. 11A-11B) more strongly than benign MCF-10A breast epithelial tumor cells (FIGS. 11C-11D) as shown by immunofluorescent staining. […] The anti-EphA2 monoclonal antibody EA5 identified malignant prostate cancer cells in formalin-fixed, paraffin-embedded archival clinical specimens (FIG. 12).

[3] = target: T1, EphA2-Ephrin A1-Fc complex (Homo sapiens, UniProt P29317); test: Binding to EphA2-Ephrin A1-Fc complex on microtiter plate; conditions: EphA2-Fc bound to immobilized Ephrin A1-Fc
T1 construct: consisting of the extracellular domain of EphA2 linked to human IgG1 constant region
T1 sequence (P29317 24-537 limits assumed): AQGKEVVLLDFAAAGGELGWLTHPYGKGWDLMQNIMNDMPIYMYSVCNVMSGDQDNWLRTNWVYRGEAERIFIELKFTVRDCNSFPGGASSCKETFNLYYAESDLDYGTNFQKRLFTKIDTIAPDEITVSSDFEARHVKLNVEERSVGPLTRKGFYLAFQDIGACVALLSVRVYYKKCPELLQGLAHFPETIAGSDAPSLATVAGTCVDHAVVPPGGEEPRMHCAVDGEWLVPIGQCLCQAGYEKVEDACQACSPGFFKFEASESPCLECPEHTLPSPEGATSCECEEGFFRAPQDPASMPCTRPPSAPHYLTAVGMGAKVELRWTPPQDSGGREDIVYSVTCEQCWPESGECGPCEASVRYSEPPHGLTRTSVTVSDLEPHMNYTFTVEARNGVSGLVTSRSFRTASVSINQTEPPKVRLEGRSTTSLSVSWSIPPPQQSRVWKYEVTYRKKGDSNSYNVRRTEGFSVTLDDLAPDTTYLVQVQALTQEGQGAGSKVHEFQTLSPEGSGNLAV
T1 sequence (P20827 19-182 partner limits assumed): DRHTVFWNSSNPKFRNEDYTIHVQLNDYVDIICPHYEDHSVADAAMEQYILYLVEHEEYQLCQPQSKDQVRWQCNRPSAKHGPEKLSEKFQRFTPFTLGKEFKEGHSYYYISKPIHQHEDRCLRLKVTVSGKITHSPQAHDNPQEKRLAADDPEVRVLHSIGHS
Experimental: (§5) A microtiter plate was coated with […] Ephrin A1-Fc overnight at 4° C. A fusion protein consisting of the extracellular domain of EphA2 linked to human IgG1 constant region (EphA2-Fc) was incubated with and bound to the immobilized Ephrin A1-Fc. Biotinylated Ephrin A1-Fc or EA5 was incubated with the EphA2-Ephrin A1-Fc complex and amount of binding was measured.

[4] = target: T1, EphA2-Ephrin A1-Fc complex; test: Competition for labeled EA5 on EphA2-Ephrin A1-Fc complex; type: binding; conditions: biotinylated EA5 10 μg/ml, 30 min.
Experimental: as §5
The EphA2-Ephrin A1-Fc complex was prepared as described above. Biotinylated EA5 (10 μg/ml) was then incubated with the complex for 30 min. Unlabeled competitor was incubated with EphA2-Ephrin A1-Fc-EA5 complex in the indicated amount. Unlabeled EA5 could displace the labeled EA5 at concentrations of 100 ng/ml or greater.

EphA2 [5] = target: T2, EphA2 (Homo sapiens, UniProt P29317); test: EphA2 tyrosine phosphorylation and degradation in MDA-MB-231 cells (immunoprecipitation / western blot); type: cell-based; set-up: endogenous in cells; host or cells: MDA-MB-231; MCF-10A; conditions: MDA-MB-231 monolayers
T2 sequence (P29317 24-976): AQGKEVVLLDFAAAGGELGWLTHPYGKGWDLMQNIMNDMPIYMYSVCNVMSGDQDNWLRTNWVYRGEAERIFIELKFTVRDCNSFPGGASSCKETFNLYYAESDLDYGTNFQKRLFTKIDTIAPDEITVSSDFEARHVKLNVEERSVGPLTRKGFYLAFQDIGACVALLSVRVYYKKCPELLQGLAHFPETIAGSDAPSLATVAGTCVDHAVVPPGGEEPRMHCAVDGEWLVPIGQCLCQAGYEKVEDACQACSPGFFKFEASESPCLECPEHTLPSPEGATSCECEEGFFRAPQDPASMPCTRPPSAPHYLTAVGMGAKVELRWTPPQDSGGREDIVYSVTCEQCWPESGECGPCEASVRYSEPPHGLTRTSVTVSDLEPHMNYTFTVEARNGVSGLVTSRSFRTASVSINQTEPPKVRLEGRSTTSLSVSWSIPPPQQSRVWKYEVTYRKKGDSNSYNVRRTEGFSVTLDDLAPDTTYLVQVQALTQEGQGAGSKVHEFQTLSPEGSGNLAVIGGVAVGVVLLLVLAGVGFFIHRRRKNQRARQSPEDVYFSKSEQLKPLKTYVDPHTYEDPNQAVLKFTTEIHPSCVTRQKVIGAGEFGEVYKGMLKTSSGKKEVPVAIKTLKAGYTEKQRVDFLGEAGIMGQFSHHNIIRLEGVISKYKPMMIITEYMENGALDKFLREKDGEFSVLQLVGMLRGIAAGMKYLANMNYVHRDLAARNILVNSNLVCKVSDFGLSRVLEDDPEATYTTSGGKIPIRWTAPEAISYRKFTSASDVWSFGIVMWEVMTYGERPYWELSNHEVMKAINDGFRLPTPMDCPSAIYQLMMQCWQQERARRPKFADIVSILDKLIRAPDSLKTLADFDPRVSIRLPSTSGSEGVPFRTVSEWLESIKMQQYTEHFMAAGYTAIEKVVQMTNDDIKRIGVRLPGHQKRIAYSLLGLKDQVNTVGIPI
Experimental: EphA2 antibodies promoted tyrosine phosphorylation and degradation of EphA2 in MDA-MB-231 (FIGS. 1A-1C) cells. Monolayers of cells were incubated in the presence of EA5 (FIGS. 1A-1B, lanes 2, 3) or EA2 (FIGS. 1A-1B, lanes 4, 5) or control (FIGS. 1A-1B, lane 1) for 8 minutes at 37° C. Cell lysates were then immunoprecipitated with an EphA2-specific antibody (D7, purchased from Upstate Biologicals, Inc., Lake Placid, N.Y. and deposited with the American Type Tissue Collection on Dec. 8, 2000, and assigned ATCC number PTA 2755), resolved by SDS-PAGE and subjected to western blot analysis with a phosphotyrosine-specific antibody (4G10, purchased from Upstate Biologicals, Inc., Lake Placid, N.Y.) (FIG. 1A). The membranes were stripped and re-probed with the EphA2-specific antibody used in the immunoprecipitation (D7) as a loading control.
Western blot analyses and immunoprecipitations were performed as described previously (Zantek et al., 1999, Cell Growth Diff. 10: 629-38). Briefly, detergent extracts of cell monolayers were extracted in Tris-buffered saline containing 1% Triton X-100 (Sigma, St. Louis, Mo.). […] Antibody binding was detected by enhanced chemiluminescence (Pierce, Rockford, Ill.) and autoradiography (Kodak X-OMAT; Rochester, N.Y.). […]

[6] = system: MDA-MB-231 breast cancer cells; test: Tumor growth in vivo, MDA-MB-231 cells implanted into athymic mice; conditions: 6 mg/kg intraperitoneally twice a week for 3 weeks
Experimental: as §1

EphA2 [7] = target: T2, EphA2; test: Immunofluorescent staining of MDA-MB-231 and MCF-10A cells; type: binding; set-up: endogenous in cells; host or cells: MDA-MB-231; MCF-10A
Source text: as §4
EA5 preferentially binds an EphA2 epitope exposed on cancer cells but not non-cancer cells. Non-transformed MCF-10A cells or transformed MDA-MB-231 cells were incubated with 10 μg/ml EA2 at 4° C. for 30 min. prior to fixation in a 3% formalin solution and immunolabeling with fluorophore-conjugated anti-mouse IgG.

EphA2 [8] = target: T2, EphA2; test: EphA2 expression in MCF-7^EphA2 cells after EA5 (western blot); type: cell-based; set-up: expressed in transfected cells; host or cells: MCF-7; conditions: 3 μg/ml EA5
Experimental: Estrogen-sensitive breast cancer cells, MCF-7 cells, were transfected with and stably overexpressed human EphA2 (MCF-7^EphA2) (pNeoMSV-EphA2 provided by Dr. T. Hunter, Scripps Institute). Western blot analyses confirmed the ectopic overexpression of EphA2 in transfected cells relative to matched controls (data not shown).
Growth MCF-7^EphA2 cells which had decreased EphA2 expression levels was assayed in soft agar. The EphA2 monoclonal antibody EA5 induced EphA2 activation and subsequent degradation. […] Whereas EA5 decreased soft agar colonization (by 19%), the combination of EA5 and tamoxifen caused a much more dramatic (>80%) decrease in soft agar colonization.

EphA2 [9] = target: T2, EphA2; test: EphA2 tyrosine phosphorylation and degradation in A549 cells (immunoprecipitation / western blot); type: cell-based; set-up: endogenous in cells; conditions: A549 monolayers
Experimental: Western blot analyses and immunoprecipitations were performed as described previously (Zantek et al., 1999, Cell Growth Diff. 10: 629-38). Briefly, detergent extracts of cell monolayers were extracted in Tris-buffered saline containing 1% Triton X-100 (Sigma, St. Louis, Mo.). After measuring protein concentrations (BioRad, Hercules, Calif.), 1.5 mg of cell lysate was immunoprecipitated, resolved by SDS-PAGE and transferred to nitrocellulose (Protran, Schleicher and Schuell, Keene, N.H.). Antibody binding was detected by enhanced chemiluminescence (Pierce, Rockford, Ill.) and autoradiography (Kodak X-OMAT; Rochester, N.Y.).
Similar experiments were conducted with A549 cells. Monolayers of A549 cells were incubated at 37° C. in the presence of EA5 or EA2 or control (PBS) for either 10 minutes (FIGS. 2A-2B) or 5 hours (FIGS. 2C-2D). Cell lysates were then immunoprecipitated with an EphA2-specific antibody (D7), resolved by SDS-PAGE and subjected to western blot analysis with a phosphotyrosine-specific antibody (4G10, purchased from Upstate Biologicals, Inc., Lake Placid, N.Y.) (FIGS. 2A, 2C). The membranes were stripped and re-probed with the EphA2-specific antibody used in the immunoprecipitation (D7) as a loading control (FIGS. 2B, 2D). […] (FIG. 2D).

MCF-7^EphA2 cells = test: Colony formation in soft agar, MCF-7^EphA2 cells; type: cell-based
Experimental: as §2, with “Cells were suspended in soft agar for 7 days at 37° C. in the presence of purified antibody or control solution (PBS), administered at the time of suspension.” left out
as §3
(§6) Growth assays were conducted as follows. MCF-7^neo (control cells) or MCF7^EphA2 cells were seeded in 96-well plates. […] Colony formation in soft agar was performed as previously described (Zelinski et al., 2001, Cancer Res. 61: 2301-6) and scored microscopically, defining clusters of at least three cells as a positive. The data represent the average of ten separate high-power microscopic fields from each sample and representative of at least three separate experiments. Error bars represent the standard error of the mean of at least three different experiments as determined using Microsoft Excel software.
Sensitivity of MCF-7^EphA2 cells to tamoxifen was measured.
Growth MCF-7^EphA2 cells which had decreased EphA2 expression levels was assayed in soft agar.

control MCF-7 cells = test: Colony formation in soft agar, control MCF-7 cells; type: cell-based; conditions: tamoxifen 1 μM, EA5 10 μg/ml
Experimental: as §2, with “Cells were suspended in soft agar for 7 days at 37° C. in the presence of purified antibody or control solution (PBS), administered at the time of suspension.” left out
as §6
Sensitivity of MCF-7^EphA2 cells to tamoxifen was measured. […]

EphA2 [10] = target: T2, EphA2; test: Flow cytometry of EA5 binding to EphA2 with or without EGTA; set-up: endogenous in cells; host or cells: MDA-MB-231; MCF-10A; conditions: 10 μg/ml EA5
Experimental: An equivalent experiment was performed using MCF-10A or MDA-MB-231 cells. The amount of EA5 binding to EphA2 was measured using flow cytometry (FIGS. 14C-14D). Cells were either treated by incubation in 4 mM EGTA for 10-15 minutes on ice (top panel) or were not treated with EGTA (middle panel) before incubation with 10 μg/ml EA5. Cells were then fixed with 3% formalin and labeled with fluorophore-labeled donkey anti-mouse IgG. Control cells were incubated only with secondary antibody (fluorophore-labeled donkey anti-mouse IgG) in the absence of primary antibody (EA5) (bottom panel). The samples were then evaluated using flow cytometry (Becton Dickinson FACStar Plus).

Amount of biotinylated protein bound to EphA2-Ephrin A1-Fc complex [3]: considerable levels of EA5 bound
Concentration of unlabeled competitor that displaces labeled EA5 [4]: ≥ 100 ng/mL
EphA2 protein levels (EphA2 [5]; 30 μg/ml, 24 hours at 37° C.): decrease
Levels of EphA2 phosphorylation (EphA2 [5]; 8 minutes at 37° C., phosphotyrosine western blot): increase
Binding to malignant MDA-MB-231 vs benign MCF-10A cells (EphA2 [7]; immunofluorescent staining): more strongly
Time EphA2 remained undetectable (EphA2 [8]): ≥ 24 h
EphA2 phosphorylation (EphA2 [9]; 10 minutes at 37° C.): increase in phosphorylation
EphA2 protein degradation (EphA2 [9]; 5 hours at 37° C.): degradation of the EphA2 protein
Effect of EGTA treatment on binding to non-transformed cells (EphA2 [10]; MCF-10A, 4 mM EGTA 10-15 minutes on ice): increased by incubation in EGTA
Effect of EGTA treatment on binding to transformed cells (EphA2 [10]; MDA-MB-231, 4 mM EGTA 10-15 minutes on ice): did not affect
B1: EA5: EphA2 agonistic monoclonal antibody; hybridoma strain EA5.12, ATCC PTA-4381; VL SEQ ID NO:17, VH SEQ ID NO:21 (antibody, listed as Home sapiens, V domains shown)
VH: EVQLQQSGPELVKTGASVKISCKASGYSFTGYYMHWVKQSHGKSLEWIGYISCYNGVTSYNQKFKGKATFTVDTSSSTAYMQFNSLTSEDSAVYYCARSHAMDYWGQGTSVTVSS
VL: DVVMTQTPLTLSVTIGQPASISCKSSQSLLYSNGKTYLNWLLQRPGQSPKRLIYLVSKLDSGVPDRFTGSGSGTDFTLKISRVEAEDLGVYYCVQGSHFPWTFGGGTKLEIK
modifications: EA5.12 Heavy chain variable region; EA5.12 Light chain variable region
Tumor growth, cells implanted subcutaneously (A549 lung cancer cells): inhibited
Cell growth in soft agar (colonies per high-powered field) [1]: inhibited cell growth in soft agar
Immunoreactivity against prostate cells [2]: immunoreactive against malignant prostate cells
Tumor growth, cells implanted orthotopically ([6]; vs PBS or 1A7 antibody): inhibited growth
Tumor growth, cells implanted subcutaneously ([6]; vs negative control): inhibited growth
Binding to EphA2 on transformed MDA-MB-231 vs non-transformed MCF-10A cells (EphA2 [7]; 10 μg/ml, 4° C., 30 min., before fixation): preferentially binds EphA2 on transformed cells
Binding to EphA2 on MCF-10A cells with or without EGTA (EphA2 [7]; 4 mM EGTA for 20 min., immunofluorescence): bound EphA2 on the EGTA dissociated cells but not the untreated cells
Levels of EphA2 expression (EphA2 [8]): Decreased levels of EphA2 expression were observed within two hours
Ability to grow in soft agar (colonies per high-powered field) (MCF-7^EphA2 cells; 7 days at 37° C., vs PBS): inhibits the ability of MCF-7^EphA2 cells to grow in soft agar
Decrease in soft agar colonization (MCF-7^EphA2 cells; MCF-7^EphA2 cells, tamoxifen 1 μM and/or EA5 10 μg/ml (FIG. 10C)): 19%
Sensitivity of MCF-7^EphA2 cells to tamoxifen (MCF-7^EphA2 cells; soft agar, tamoxifen 1 μM, EA5 10 μg/ml): increased the sensitivity
Effect of EA5 on tamoxifen response of soft agar colonization (control MCF-7 cells): did not further alter this response
